According to PubChem BioAssay (NCI):
Values joined by “and” are separate entries in the source; they are usually repeats but may differ in a detail not shown here. Identical values can stand only once.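 Dose response: 5 concentrations. Exposure: 48 h. Format: 96-well plates. Endpoint: linear interpolation; highest concentration if not reached. GI50 marks 50% less growth. TGI denotes the concentration required for complete inhibition of growth.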

Test system: NCI-H322M lung
Assay: NCI-60 cell line screen, 48 h

Compound | TGI | GI50 [µM]
Nc1ncnc2c1ncn2C1CC(OC2CCCCO2)C(CO)O1 (centres undefined) | > 100 µM | 
Cc1cc(N(CCOS(C)(=O)=O)CCOS(C)(=O)=O)ccc1C=Nc1ccc(-c2csc(-c3ccc(Br)cc3)n2)cc1 | 30.7 µM | 
C[C@@H]1OCC2(CCN(c3cnc(Sc4ccnc(N)c4Cl)c(N)n3)CC2)[C@@H]1N | > 100 µM | 0.329
COc1ccc(C2CC(=O)c3c(O)c(OC)c(OC)c(OC)c3O2)cc1O (centres undefined) | > 100 µM | 3.22
CCOC(=O)c1ccc(Nc2nc3cc(C(F)(F)F)ccc3nc2C(=O)OCC)cc1 | > 100 µM | 
CCN(CC)C(=S)SS(=O)(=O)c1ccc(NC(C)=O)cc1 | > 100 µM | 
O=[N+]([O-])c1ccc(C(=Nc2ccccc2)SSC(=Nc2ccccc2)c2ccc([N+](=O)[O-])o2)o1 | 3.37 µM | 
CCOC(=O)c1cc(OC(=O)CC)c2c(OC)ccc(OC)c2c1 | > 100 µM | 
c1cc(C[S+]2CCCC2)sc1C[S+]1CCCC1 | > 100 µM | 
COc1ccc(C2c3c(-c4ccccc4)nn(-c4ccccc4)c3Oc3ncn4nc(CC#N)nc4c32)cc1OC (centres undefined) | > 100 µM | 
CCCc1c(C(=O)OCC)[nH]c(C(=O)CCC(=O)c2[nH]c(C(=O)OCC)c(CCC)c2C(=O)OCC)c1C(=O)OCC | > 100 µM | 
COC(=O)[C@@H]1OC(C)(c2ccccc2)O[C@H]1C(=O)OC | > 100 µM | 
CN1CCN(CC(=O)N2c3cccc4cccc(c34)N(C(=O)CN3CCN(C)CC3)C2c2cn(-c3ccccc3)nc2-c2cccc([N+](=O)[O-])c2)CC1 | 4.5 µM | 2.01
O=S(=O)(CCCCl)SCCCCl | > 100 µM | 
CCOC(=O)c1cc(Br)c(-c2onc(C)c2Br)n1C | > 100 µM | 
CC1c2cc(c3c(c2O)CN([C@@H](C)C2CCCCC2)CO3)C(C)c2cc(c3c(c2O)CN([C@@H](C)C2CCCCC2)CO3)C(C)c2cc(c3c(c2O)CN([C@@H](C)C2CCCCC2)CO3)C(C)c2cc1c1c(c2O)CN([C@@H](C)C2CCCCC2)CO1 (some centres undefined) | 2.73 µM | 
CC(C)C1COC(c2ccc3ccccc3c2-c2c(O[Si](C)(C)C(C)(C)C)ccc3ccccc23)=N1 (centres undefined) | 30.8 µM | 
CCCCCCCCCCCCC(CCCCCCCCCCCC)OP(=O)(O)O | > 100 µM | 
CCOC(=O)c1ccc(N=c2oc3ccc(OC)cc3cc2-c2nc3ccccc3[nH]2)cc1 | > 100 µM | 
COC(=O)C1(C(=O)OC)CC2=C(S(=O)(=O)c3ccccc3)C[C@H](C#N)[C@H]2C1 | > 100 µM | 
COc1ccc2nc(-c3cc4c([nH]c5ccccc54)c(-c4ccc(F)c(F)c4)n3)[nH]c2c1 | 33.5 µM | 4.93
Nc1nc(-c2ccccc2)cc(-c2ccc(Cl)cc2)c1-c1nc2ccccc2o1 | 31.5 µM | 16.7
NC(CC(=O)O)(Cc1ccccc1)C(=O)O (centres undefined) | > 100 µM | 

Compound | TGI | GI50 [µM]
c1ccc2c(c1)[nH]c1c2ncc2[nH]c3ccccc3c21 | 8.9 µM | 
COc1ccc(C2C(C=O)C(N3CCN(C)CC3)=Nc3nc4ccccc4n32)cc1 (centres undefined) | 59.8 µM | 
COC(=O)C1=C(C)N(NC(N)=O)C(C)(O)C12CCOC2=O (centres undefined) | > 100 µM | 
Nc1c2ccccc2nc2ccccc12 (tested in a mixture with another compound) | 7.84 µM | 2.77
CCc1ccccc1NC(=O)C(=O)CC(=O)c1sc(Nc2ccccc2Cl)nc1C | > 100 µM | 
C/C(=C\c1ccn(-c2ccc(N)cc2F)n1)[C@@H]1C[C@@H]2O[C@]2(C)CCC[C@H](C)[C@H](O)[C@@H](C)C(=O)C(C)(C)[C@@H](O)CC(=O)O1 | > 50 µM | 0.0247
FC(F)(F)c1nc(-c2ccccc2)oc1Sc1oc(-c2ccccc2)nc1C(F)(F)F | > 100 µM | 
O=C(OCc1ccccc1)N1CCCc2c(n(S(=O)(=O)c3ccccc3)c3ccccc23)C1 | > 100 µM | 
Cn1c(=O)c2[nH]c(CCCCc3nc4c([nH]3)c(=O)n(C)c(=S)n4C)nc2n(C)c1=S | > 100 µM | 
O=C(O)C1=NN(c2ccc(S(=O)(=O)O)cc2)C2(C1)SCC(=O)N2c1nc2ccccc2s1 (centres undefined) | > 100 µM | 
CN(C)CCCN1c2ccccc2CCc2cc([N+](=O)[O-])ccc21 | 60.6 µM and 31.6 µM | 
CCCN1C(=O)CNC(=O)c2[nH]cnc21 | > 100 µM | 
Oc1c(CN2CCN(c3ccccc3F)CC2)cc(Br)c2cccnc12 | > 100 µM | 1.2
Cc1ccc(NC(=O)CC2C(=O)Nc3ccccc3S2=O)c(C)c1 (centres undefined) | > 100 µM | 
O=c1c(=[n+]2ccc(=C([O-])c3ccccc3)cc2)/c(=N/S(=O)(=O)c2ccccc2)c(=O)c2ccccc12 | 29.2 µM | 
O=C(Nc1ccc(Cl)cc1)NS(=O)(=O)c1c(-c2ccccc2)oc2ccccc2c1=O | > 100 µM | 
CCOP(=O)(OCC)C(Nc1ccc(C(=O)O)cc1)c1ccc(C(Nc2ccc(C(=O)O)cc2)P(=O)(OCC)OCC)cc1 (centres undefined) | > 100 µM | 
CCn1c2ccccc2c2cc(NC(=O)c3c(NCCNCCO)nc(=O)[nH]c3C)ccc21 | > 100 µM | 
COc1cccc(C2c3cc4c(cc3OC(N3CCCCC3)C2C)OCO4)c1OC (centres undefined) | 72.2 µM | 
CC(=O)C1=C(O)CCC1=O | > 100 µM | 
O=C(N/N=C(\c1nc2ccc(Cl)cc2[nH]c1=O)C(O)c1ccccc1Cl)c1ccncc1 (centres undefined) | > 100 µM | 
COC(=O)[C@H](COC(=O)/C=C/c1ccc(OC(C)=O)c(OC(C)=O)c1)NC(=O)/C=C/c1ccc(OC(C)=O)c(OC(C)=O)c1 | 36.8 µM | 
O=c1c2cc(S(=O)(=O)Nc3c(Cl)cccc3Cl)ccc2ncn1NS(=O)(=O)c1ccc2ccccc2c1 | > 62.5 µM | 
